About 400 (5.1%) of roughly 7,900 compounds showed an effect of 50% or more. The list shows a part of the results.

Parkinson's disease protein 7 (PARK7/DJ1), sequence (Q99497 whole entry, looked up, the tested form may be a part): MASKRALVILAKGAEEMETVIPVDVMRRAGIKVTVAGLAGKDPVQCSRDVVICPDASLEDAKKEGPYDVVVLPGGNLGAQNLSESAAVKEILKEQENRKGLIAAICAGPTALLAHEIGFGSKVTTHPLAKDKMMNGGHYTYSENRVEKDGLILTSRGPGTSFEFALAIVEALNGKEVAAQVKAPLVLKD

In the assay the target is Parkinson's disease protein 7 (PARK7/DJ1) (human, UniProt Q99497). Description: primary screen, percent inhibition; read as competition with a fluorescent probe by fluorescence polarization; higher = more effect of the substance. The note with it: 100 µM. The gist of the method:
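Fluorescence-polarization probe displacement (JYQ-107, 20 nM final, 2 h) after 2 h preincubation of PARK7 (0.2 μM final) with each fragment at 100 μM final. Read-out ex/em 480/520 nm; remaining activity derived from FP signal loss relative to reference controls.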
As for `CC(C)(C)OC(=O)N1CCC(B2OC(C)(C)C(C)(C)O2)CC1`, the Inhibition % came out at 1.74%.
Consider `O=C(CCl)NCc1cc([N+](=O)[O-])ccc1O`, for which the Inhibition % was 18.7%.
In the case of `O=c1c2ccccc2nc(S)n1CCCN1CCOCC1` it was 8.44%; in that of `O=C(CCCl)Nc1cccc(F)c1`, 5.31%; in that of `Nc1ccccc1OC1CC(=O)N1` (centres unmarked), 8.49%.
In the case of `CC1CC(N)CCN1C(=O)C=CC1CCOCC1` (centres unmarked) it was 14.8%.
In the case of `O=C(CCl)NCCOc1ccc2c(c1)OCO2` it was 14%; in that of `Cc1cc(C)c(-c2csc(NC(=O)CCl)n2)cc1C`, 5.92%; in that of `Cc1ccc(C)c(NC(=O)CN2CCSC2=O)c1`, 4.62%.
For the compound `C=CC(=O)N1Cc2sccc2CC1(C)C`, the Inhibition % came out at 14.7%.
For `C=CC(=O)N(CC)Cc1ccc2ccccc2n1`, the Inhibition % turned out to be 10.2%.
In the case of `O=C(CCl)NC(=O)Nc1ccc2c(c1)OCO2` it was 1.46%.
As for `C=CC(=O)NC(NC(=O)C=C)c1ccccc1`, the figure is 11.8%.
In the case of `COC(=O)c1cc(B2OC(C)(C)C(C)(C)O2)c(N)cc1OC` it was 7.25%.
With `CC1(C)CC(NC(=O)c2ccc(S(=O)(=O)F)cc2)CCO1` (centres unmarked), the Inhibition % amounted to 14.4%.
As to `C=CC(=O)NC(C)c1c(C)nn(CC(F)(F)F)c1C` (centres unmarked), the Inhibition % is 4.48%.
As for `C=CC(=O)Nc1cccc(OC)c1`, the figure is 6.69%; as for `Cl.O=C(CCl)Nc1nc2ccccc2s1`, 16.8%; as for `N#Cc1nccn1Cc1cccc(F)c1F`, 4.63%.
In the case of `C=CC(=O)N(C)Cc1nc(C(F)(F)F)cs1` it was 7.08%.
In the case of `C=CCNC(=O)C(C#N)=Cc1ccc(N(C)C)cc1` it was 2.49%; in that of `O=C1CC(Cc2ccccc2)N1` (centres unmarked), 3.33%.
With `CC1CC(N2CC=C(c3ccc(F)cc3)CC2)C(=O)O1` (centres unmarked), the Inhibition % came to 5.18%.
As for `Cc1ccccc1CNC(=O)CCl`, the figure is 5.79%.
As for `CC1CNCCN1C(=O)C=Cc1cccnc1` (centres unmarked), the figure is 10%; as for `C=CC(=O)N1CCCC1c1cnn(C)c1` (centres unmarked), 10%; as for `CCOc1ccc(C(C)C)cc1S(=O)(=O)n1ccnc1C`, 9.12%.
`CCC(CO)n1c(S)nc2ccccc2c1=O` (centres unmarked): the Inhibition % came to 6.84%.
As for `N#Cc1ccsc1NC(=O)CN1CCSC1=O`, the figure is 5.08%; as for `CC(C)(C)OC(=O)N1CCC=C(B2OC(C)(C)C(C)(C)O2)C1`, 0.918%; as for `Cc1nn(C)c(C)c1CNc1ccc(C#N)nc1`, 10.1%.
As for `CC1(C)C(=O)NC1c1ccccc1` (centres unmarked), the figure is 5.46%; as for `C=CC(=O)N1CCN(c2ccc(C(F)(F)F)cc2)CC1`, 3.27%; as for `CC(C)NC(=O)C(C#N)=Cc1c(Cl)nc2ccccn12`, -2.18%.
In the case of `O=C(CCl)NNC(=O)c1cc2ccccc2[nH]1` it was 1.5%.
For the compound `COC(=O)Nc1ccc(S(=O)(=O)F)cc1[N+](=O)[O-]`, the Inhibition % stood at 101%.
`Cl.O=c1[nH]nc(C2CCCNC2)o1` (centres unmarked): the Inhibition % was determined as 5.47%.
On to `N#CC(=CC=Cc1ccccc1)C(=O)N1CCCC1`, for which the Inhibition % was 10.9%.
In the case of `Clc1cccc(CC2CO2)c1` (centres unmarked) it was 4.72%.
As for `N#Cc1ncn(CC(=O)N(C2CCCC2)C2CC2)n1`, the figure is 11.3%.
In the case of `CC1(C)OB(c2ccc(C(F)(F)C(F)(F)F)cc2)OC1(C)C` it was 6.7%; in that of `CSCC(=O)N1CCN(c2oc(C)nc2C#N)CC1`, 8.43%; in that of `C=CC(=O)NCC(=O)NC1CCOc2ccccc21` (centres unmarked), 11.3%.
As for `C=CC(=O)N(CC)Cc1cccc2c1OCO2`, the Inhibition % amounted to 3.79%.
In the case of `C=CC(=O)N1CCC(C(=O)c2cccs2)CC1` it was 6.41%; in that of `CC1CC(C)CC2(C1)NC(=O)N(CCC1OCCO1)C2=O` (centres unmarked), 2.2%; in that of `Cc1nn(C)c(Cl)c1C1CCCN1C1CC(C)OC1=O` (centres unmarked), 7.23%.
`CC1CN(C(=O)C=Cc2c(Cl)nc3ccccn23)CCO1` (centres unmarked): the Inhibition % is listed as 9.17%.
As to `Cc1ccccc1CN1CCN(C(=O)CCl)CC1.Cl`, the Inhibition % is 8.19%.
Consider `CC(C)Cc1nc(C#N)c(N)o1`, for which the Inhibition % was determined as 2.55%.
In the case of `CC1(C)OB(c2cc(C(F)(F)F)n[nH]2)OC1(C)C` it was 5.19%; in that of `CC(C)Oc1cccc(CNC(=O)CCl)c1`, 12.2%.
As for `CC(C)Cc1nnc(NC(=O)CCl)s1`, the figure is 0.605%.
In the case of `CC(C)(C)C(=O)NNS(=O)(=O)c1cccc(S(=O)(=O)F)c1` it was 97.2%.
Regarding `C=CC(=O)N(Cc1ccncc1)CC1CCCO1` (centres unmarked), the Inhibition % came to 6.75%.
Turning to `C=CC(=O)N1CCCC(n2ccnn2)C1` (centres unmarked), the Inhibition % was determined as 5.87%.
As for `COc1ccc(NC(=O)c2cccnc2S)cc1OC`, the figure is 4.53%; as for `CC1(C)OB(c2ccc(F)cc2[N+](=O)[O-])OC1(C)C`, 3.67%.
In the case of `C=CC(=O)N1CCC(CCF)CC1` it was 5.32%.
In the case of `O=S(=O)(C=Cc1ccccc1)N1CCNCC1` it was 9.53%; in that of `Cc1c(C#N)c(NC(=O)CCl)n(-c2ccc(F)cc2)c1C`, 1.78%.
Regarding `C=CC(=O)NC1CC=CCC1` (centres unmarked), the Inhibition % is reported as 18.2%.
As for `O=C(CCl)N(c1ccccc1)C1CCS(=O)(=O)C1` (centres unmarked), the figure is 5.5%; as for `N#CC(=Cc1ccc(N2CCNC(=O)C2)cc1)C(N)=O`, 8.54%; as for `O=C(Nc1cccc(S(=O)(=O)F)c1)C1CCCC1`, 99.8%.
In the case of `CCCn1c(C)cc(C=C(C#N)C(=O)N2CCC2)c1C` it was 11.8%; in that of `C=CC(=O)Nc1ccc2c(c1)CCC(=O)N2CC1CC1`, 4.69%.
Take `O=C(c1ccccc1)C1NC1c1ccccc1` (centres unmarked): the Inhibition % came out at 8.66%.
As for `CC(C)(C)CC(C)(C)NC(=O)CC1C=CS(=O)(=O)C1` (centres unmarked), the figure is 5.56%; as for `Cc1ccc(Sc2ccc(NC(=O)CCl)cc2)cc1C`, 34.5%.
On to `CC(=O)c1ccccc1B1OC(C)(C)C(C)(C)O1`, for which the Inhibition % is 1.38%.
As for `C=CC(=O)NCC1CCN(CC#N)CC1`, the figure is 9.24%; as for `C=CC(=O)N(C)Cc1ncc(C)c(OC)c1C`, 7.33%.
As for `Cc1cc(Cn2cnc(C#N)n2)no1`, the figure is 10.9%; as for `C=CC(=O)N1CCC(CNS(C)(=O)=O)CC1`, 9.38%.
As for `C=CC(=O)Nc1cccc(CN2CCOCC2)n1`, the figure is 10.8%.
In the case of `C=CCNC(=O)C(C#N)=Cc1ccc(C(=O)O)cc1`, the Inhibition % came to 10.8%.

These data come from PMC9574860, “Chemical Toolkit for PARK7: Potent, Selective, and High-Throughput” (Journal of Medicinal Chemistry, 2022).
